This note sets out measurements from PMC4336329 (PLoS ONE, 2015).

Screen size: about 310,000 compounds; about 2,200 (0.71%) showed an effect of 50% or more. Effects have a minus sign here. This is one part of the list.

Sequence of human ether-à-go-go-related gene (hERG) potassium channel (Q12809 whole entry, looked up): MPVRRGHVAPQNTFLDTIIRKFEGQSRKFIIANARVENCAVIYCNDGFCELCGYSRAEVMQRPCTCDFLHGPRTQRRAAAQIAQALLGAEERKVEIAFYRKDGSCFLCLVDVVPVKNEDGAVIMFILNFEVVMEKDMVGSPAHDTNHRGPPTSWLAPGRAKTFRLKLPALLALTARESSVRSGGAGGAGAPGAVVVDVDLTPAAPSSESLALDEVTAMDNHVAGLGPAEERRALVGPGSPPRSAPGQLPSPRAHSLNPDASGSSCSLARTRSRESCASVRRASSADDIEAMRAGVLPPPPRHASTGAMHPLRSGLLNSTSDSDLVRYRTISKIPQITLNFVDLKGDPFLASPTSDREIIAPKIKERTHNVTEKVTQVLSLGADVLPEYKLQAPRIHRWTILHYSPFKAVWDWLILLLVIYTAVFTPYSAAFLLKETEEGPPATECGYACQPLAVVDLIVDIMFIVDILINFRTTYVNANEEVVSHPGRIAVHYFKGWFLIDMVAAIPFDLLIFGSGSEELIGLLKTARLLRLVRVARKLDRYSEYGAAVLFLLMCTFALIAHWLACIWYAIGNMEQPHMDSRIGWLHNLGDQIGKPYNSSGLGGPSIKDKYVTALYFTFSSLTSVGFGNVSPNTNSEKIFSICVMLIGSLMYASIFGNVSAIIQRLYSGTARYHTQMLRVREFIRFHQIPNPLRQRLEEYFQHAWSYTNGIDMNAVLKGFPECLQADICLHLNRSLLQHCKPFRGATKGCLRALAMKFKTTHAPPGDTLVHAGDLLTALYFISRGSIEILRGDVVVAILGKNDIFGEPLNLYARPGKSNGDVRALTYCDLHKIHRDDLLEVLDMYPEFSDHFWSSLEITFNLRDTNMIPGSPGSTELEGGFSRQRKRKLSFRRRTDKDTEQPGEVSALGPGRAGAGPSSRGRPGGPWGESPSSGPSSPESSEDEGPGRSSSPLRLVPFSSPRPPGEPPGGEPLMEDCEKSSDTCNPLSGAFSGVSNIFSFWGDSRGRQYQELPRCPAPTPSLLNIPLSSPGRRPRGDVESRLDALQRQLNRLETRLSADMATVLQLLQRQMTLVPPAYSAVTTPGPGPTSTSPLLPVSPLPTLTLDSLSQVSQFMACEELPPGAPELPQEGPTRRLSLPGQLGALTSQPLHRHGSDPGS

The assay concerns the target human ether-à-go-go-related gene (hERG) potassium channel (human, UniProt Q12809). The experiment in a line: primary screen, population patch clamp on CHO cells stably expressing hERG.
As to `Cc1cccc(NC(=O)CCNC(=O)c2ccccc2)c1`, the “hERG current change (%, negative = inhibition) at 1uM” value amounted to 9.4%.
As to `CCCCNC(=S)NCC(c1ccccc1)c1c[nH]c2ccccc12` (centres unmarked), the “hERG current change (%, negative = inhibition) at 1uM” value is recorded as 7.13%.
Turning to `COc1ccccc1NC(=O)c1nnn(CC(=O)Nc2ccccc2)c1N`, the “hERG current change (%, negative = inhibition) at 1uM” value came out at 16%.
As for `CCN(CC)S(=O)(=O)c1ccc(C(=O)Nc2nnc(COC)o2)cc1`, the figure is 7.48%.
`COc1ccc(-c2ccc(CCC(=O)O)n2NC(=O)c2ccc(C(C)(C)C)cc2)cc1`: the “hERG current change (%, negative = inhibition) at 1uM” value came to 14.4%.
For the compound `O=C1[C@@H]2Cc3c([nH]c4ccccc34)C(c3ccccc3)N2C(=O)CN1CCO` (some centres unmarked), the “hERG current change (%, negative = inhibition) at 1uM” value is reported as 0.149%.
As for `COc1cccc(COC(=O)C2CCN(S(=O)(=O)c3cccs3)CC2)c1OC`, the figure is 3.86%; as for `O=S(=O)(NCCSc1ccccn1)c1ccc(Cl)cc1`, -1.28%.
For the compound `COC(=O)CN(n1cnnc1)S(=O)(=O)c1ccccc1`, the “hERG current change (%, negative = inhibition) at 1uM” value was 10.5%.
`CCCCOP(=O)(OCCCC)C(Nc1ccccc1)c1ccc2c(c1)OCO2` (centres unmarked): the “hERG current change (%, negative = inhibition) at 1uM” value was -1.1%.
As for `CC1(CC(=O)N/N=C/c2cc3c(cc2Br)OCO3)OCCO1`, the figure is 3.85%; as for `CCN(CC(=O)NCc1cccs1)C(=O)/C=C/c1cc(OC)ccc1OC`, 9.08%; as for `O=C(CCNC(=O)c1ccc(Cl)cc1)Nc1ccc(S(=O)(=O)N2CCCCC2)cc1`, -0.658%.
On to `Cc1ccc(C)c(OCCC(=O)OCC(=O)NC(=O)NC2CCCC2)c1`, for which the “hERG current change (%, negative = inhibition) at 1uM” value is 7.89%.
Consider `CCOCCCNCc1ccc(OCc2ccccc2Cl)cc1`, for which the “hERG current change (%, negative = inhibition) at 1uM” value was -0.539%.
For the compound `Cc1ccnc(NC2c3ccccc3C(=O)N2Cc2ccccc2Cl)c1` (centres unmarked), the “hERG current change (%, negative = inhibition) at 1uM” value came out at 18.7%.
With `O=C(Nc1ccc(Cl)cc1)C1CCCN(c2cnccn2)C1` (centres unmarked), the “hERG current change (%, negative = inhibition) at 1uM” value is on record as 10.2%.
`Cc1ccc(NC(=S)NNc2ncc(C(F)(F)F)cc2Cl)c(C)c1`: the “hERG current change (%, negative = inhibition) at 1uM” value came to 12.5%.
To `Cc1nc(NC(=O)C2CC2)sc1C(=O)Nc1ccc(Br)cc1` belongs 24%; to `O=C(c1ccccc1)N1CCC(c2nc3c(nnn3Cc3ccccc3Cl)c(=O)[nH]2)CC1`, 21.6%; to `CC(Sc1nc2ccccc2c(=O)n1C)C(=O)NC1CCCCC1C` (centres unmarked), 3.93%.
As for `CCCC(C(=O)NC1CCCC1)N(C(=O)Cn1nnc(-c2ccc(C)o2)n1)C1CCCC1` (centres unmarked), the figure is -0.731%; as for `C=CCNC(=S)NNC(=O)c1cccn(Cc2ccc(Cl)cc2)c1=O`, -0.762%.
In the case of `Cc1cccc(NC(=O)CCS(=O)(=O)c2ccc(Br)cc2)c1`, the “hERG current change (%, negative = inhibition) at 1uM” value stood at 10.1%.
Turning to `Cc1c(-c2ccccn2)c(=O)[nH]n1-c1ccc(F)cc1`, the “hERG current change (%, negative = inhibition) at 1uM” value is reported as -0.408%.
With `O=C(C1CCCN(S(=O)(=O)c2cccc3nonc23)C1)N1CCN(c2ccccc2)CC1` (centres unmarked), the “hERG current change (%, negative = inhibition) at 1uM” value stood at 2.02%.
For `COc1ccc(CN(C)C(=O)C2CSC3(C)CCC(=O)N23)cc1` (centres unmarked), the “hERG current change (%, negative = inhibition) at 1uM” value turned out to be 7.07%.
As for `Cc1ccc(Sc2c(C(=O)Nc3ccc(F)cc3F)c(C(F)(F)F)nn2C)cc1`, the figure is 15.7%; as for `CC(c1ccccc1)N1CNc2c(c(=O)n(C)c(=O)n2C)C1` (centres unmarked), 11%; as for `CC(=O)n1nc(-c2ccncc2)nc1SCC(=O)Nc1cccc(Cl)c1`, 24.5%.
For `O=[N+]([O-])c1cccnc1N1CCN(c2ccccc2F)CC1`, the “hERG current change (%, negative = inhibition) at 1uM” value turned out to be 0.0476%.
Regarding `CN(C(=O)CC1C(=O)NCCN1CC1CCCCC1)C1CCOCC1` (centres unmarked), the “hERG current change (%, negative = inhibition) at 1uM” value is 10%.
As to `Cc1ccc(C(=O)COC(=O)C2CC(=O)N(c3nc(-c4ccccc4)cs3)C2)cc1C` (centres unmarked), the “hERG current change (%, negative = inhibition) at 1uM” value was found to be 3.96%.
As for `NNC(=O)/C(=C\c1cccs1)NC(=O)c1ccccc1`, the figure is 11.3%.
On to `COc1ccc(C(CNC(=O)CSc2ccccc2F)N2CCOCC2)cc1` (centres unmarked), for which the “hERG current change (%, negative = inhibition) at 1uM” value was 12.1%.
As for `COc1ccc(N2CCN(C(=O)c3ccc(-c4ccccc4)cc3)CC2)cc1`, the figure is 16.3%.
In the case of `O=C1N=C(N2C=CC(=C3C=CNC=C3)C=C2)/C(=C/N=NC(=O)c2ccccc2)S1`, the “hERG current change (%, negative = inhibition) at 1uM” value is reported as 20.3%.
For `N#Cc1ccccc1NC(=O)C(=O)NCC1CCCN1S(=O)(=O)c1cccs1` (centres unmarked), the “hERG current change (%, negative = inhibition) at 1uM” value came out at 22.8%.
For the compound `CCN1C(=O)c2cccc3c(S(=O)(=O)Nc4ncccc4C)ccc1c23`, the “hERG current change (%, negative = inhibition) at 1uM” value stood at 9.17%.
In the case of `COc1ccccc1-c1nnc(SCc2nc3ccccc3[nH]2)n1C`, the “hERG current change (%, negative = inhibition) at 1uM” value is 7.54%.
On to `NS(=O)(=O)c1ccc(CNC(=O)c2ccc3ccccc3n2)cc1`, for which the “hERG current change (%, negative = inhibition) at 1uM” value stood at 11.8%.
On to `Cc1ccc(S(=O)(=O)Nc2c(NC3CCCCC3)c3ccccc3oc2=O)c(C)c1`, for which the “hERG current change (%, negative = inhibition) at 1uM” value is recorded as -0.936%.
On to `CCCN1/C(=C(/C#N)C2=NS(=O)(=O)c3ccccc32)N(C)c2ccccc21`, for which the “hERG current change (%, negative = inhibition) at 1uM” value was -1.66%.
To `COc1ccc(/C=C(\C#N)C(=O)Nc2ccccn2)cc1` belongs 10.9%.
